# The list shows a part of the results.
# Tested on: T1, Caupolican (Caup) homeodomain DNA-binding domain
# T1 sequence: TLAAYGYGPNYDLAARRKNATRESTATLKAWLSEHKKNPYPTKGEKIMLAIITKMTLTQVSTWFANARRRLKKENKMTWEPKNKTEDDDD
# Assay: PBM E-score (8-mer, recovered from the published 9-mer minima) (E-score (dimensionless, -0.5 to 0.5)); Drosophila protein; higher = stronger relative binding preference, active = 0.31 or more
# Method in brief: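 An enrichment score, with higher meaning stronger, expresses relative binding preference for each short DNA word. The protein used was Caup's homeodomain DNA-binding domain (residues 214-303), produced by in vitro transcription and translation and tested at 100 nM on custom-designed protein binding microarrays. The 8-mer values were recovered from published 9-mer scores, each equal to the lower of its two constituent 8-mer scores.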
row,Sequence,PBM E-score
1,CGCATATC,inactive: 0.0383
2,CAGGCTAC,inactive: -0.0229
3,CATGATCG,inactive: 0.13
4,CCACACCC,inactive: -0.126
5,GCCCCAGA,inactive: -0.266
6,AAGTCTAC,inactive: 0.0118
7,CCGCACTC,inactive: -0.162
8,ATAAATTC,inactive: 0.122
9,AACAAGGT,inactive: 0.293
10,CAGGCAAC,inactive: -0.0298
11,CATAACTC,inactive: 0.0504
12,AATATACG,inactive: 0.115
13,GCAATAAA,inactive: 0.0712
14,CGTGTCGA,inactive: 0.281
15,AGCCTACC,inactive: -0.166
16,CTCCCACA,inactive: -0.12
17,GCTTGTCA,active: 0.352
18,ACACGGGA,inactive: 0.275
19,CAATTTGG,inactive: -0.00673
20,AACCGACA,inactive: 0.167
21,CGTACCGC,inactive: -0.16
22,AAATGGAG,inactive: -0.0805
23,GGCCTTCA,inactive: -0.181
24,CACGTATG,inactive: 0.0879
25,CGGAATCA,inactive: -0.0166

row,Sequence,PBM E-score
1,GCCCGGGA,inactive: -0.252
2,CCCCGCGC,inactive: -0.241
3,ATCGGCAC,≥ -0.0218
4,CTATGGGC,inactive: -0.163
5,ACCACCCT,inactive: -0.0681
6,AACACTTC,inactive: 0.141
7,GCACCAGC,inactive: -0.218
8,GCCGCTCA,inactive: -0.182
9,GTAAACTA,inactive: 0.149
10,CGGCCCTA,inactive: -0.157
11,GTGTTCCA,inactive: 0.181
12,CCAAGTTC,inactive: -0.123
13,ATTAGGAC,inactive: 0.0684
14,TCTTACAA,inactive: 0.246
15,GTTAATCA,inactive: 0.187
16,CAACGAAA,inactive: 0.103
17,ACGGGAGG,inactive: -0.175
18,ACAGTTAA,inactive: 0.155
19,ACGCCCTA,inactive: -0.214
20,AGCCGTGA,inactive: -0.117
21,AGTTGCGG,inactive: -0.048
22,GAAAACAC,inactive: 0.166
23,AGTCAACG,inactive: 0.0361
24,AGTTAATC,inactive: 0.0623
25,ATGGAACG,inactive: 0.0259

row,Sequence,PBM E-score
1,CTTAGTAC,inactive: 0.182
2,AGAGGTGA,inactive: -0.0361
3,ATCCAGAC,inactive: -0.00977
4,GCACCAAA,inactive: -0.0494
5,AATAGATT,inactive: 0.102
6,CACCCTAG,inactive: -0.0221
7,CGATTAAG,inactive: 0.0411
8,ACGACAGC,inactive: 0.104
9,CGTATAAG,inactive: -0.0701
10,ATCTGACG,inactive: -0.0369
11,ATAATGTG,inactive: 0.19
12,ATCGCATG,inactive: 0.184
13,GCGAGCGA,inactive: -0.156
14,ACCCTCAG,inactive: -0.121
15,AAGATACT,inactive: 0.0544
16,AATGTGGC,inactive: -0.0429
17,GAGTTACA,inactive: 0.215
18,CATATGAC,inactive: 0.117
19,ATATTCTC,inactive: 0.117
20,CCCATCCG,inactive: -0.202
21,CATTATGC,inactive: 0.0714
22,AGTGAAAC,inactive: 0.108
23,GGGACACA,inactive: 0.133
24,CCCATATA,inactive: 0.0107
25,CCTCGAAC,inactive: -0.0679

row,Sequence,PBM E-score
1,CTCTCGGA,inactive: -0.171
2,CATCACCG,inactive: 0.00939
3,CGGATCTC,inactive: -0.0187
4,CATATAAA,inactive: 0.188
5,TCTGAAAA,inactive: 0.0272
6,ATGCAAAA,inactive: 0.14
7,GAGCCACC,inactive: -0.23
8,GCACTTCA,inactive: 0.0194
9,CATCATGC,inactive: 0.1
10,AAGCGGAA,≥ -0.0166
11,GTAAGCCA,inactive: -0.0677
12,ATCCATCC,inactive: 0.00203
13,ACAAGGTC,inactive: 0.298
14,AAGTCCAT,inactive: -0.00371
15,GACGCAAC,inactive: -0.0658
16,ATTTCTTG,inactive: 0.0522
17,CCCTGTAC,inactive: 0.158
18,AACCCAAT,inactive: 0.0564
19,CAACCCAC,inactive: 0.00396
20,GTTAAGAA,inactive: 0.02
21,AGCTAGTG,inactive: 0.00687
22,ATTCACGG,inactive: -0.0261
23,CCTCGTGA,inactive: -0.128
24,GCGGAGAA,inactive: -0.116
25,TGTTATAA,inactive: 0.284

row,Sequence,PBM E-score
1,AATGGACA,inactive: 0.204
2,CCTGTCTA,inactive: 0.0989
3,CCGCTCGA,inactive: -0.155
4,AACCGAAC,inactive: -0.001
5,CGCAAGTA,inactive: 0.125
6,ATAGTGTC,inactive: 0.115
7,CGGTGAGC,inactive: -0.234
8,CGCTTCGC,inactive: -0.149
9,AAGTTCAC,inactive: 0.0144
10,CAACTCCC,inactive: -0.0912
11,CCGAGAAG,inactive: -0.16
12,CCGACAAA,inactive: 0.0824
13,AGTTCACG,inactive: 0.0166
14,CCTGGCGC,inactive: -0.254
15,CACTTTAA,inactive: 0.0756
16,CGTGTACA,active: ≥ 0.441
17,ATGGCGTG,inactive: 0.0269
18,AGATTCGC,inactive: -0.0347
19,ATACCACG,inactive: 0.0961
20,CACTGCAG,inactive: -0.0804
21,CTAATTTA,inactive: 0.0888
22,CCTAGACG,inactive: -0.165
23,GAACCTTC,inactive: -0.139
24,GAAAGCGC,inactive: -0.134
25,TTCCTCAA,inactive: -0.0375

row,Sequence,PBM E-score
1,ACAGCTGG,inactive: -0.0257
2,CGAAGCAG,inactive: -0.0647
3,AACCAGTG,inactive: 0.0523
4,ACCAAAGT,inactive: -0.0316
5,GTAAAAGA,inactive: 0.0871
6,ACAGGCCG,inactive: -0.0542
7,TGGTGGAA,inactive: -0.0504
8,AACACTCA,inactive: 0.158
9,AGGAGCCA,inactive: -0.106
10,GCAGTGTA,inactive: 0.12
11,GAGTACTC,inactive: 0.00459
12,AAGGACAT,inactive: 0.284
13,GCTGCCAC,inactive: -0.148
14,AGTCTCCG,inactive: -0.0398
15,ACTGACGA,≥ 0.0373
16,AGATACTC,inactive: 0.0204
17,TCGGTAAA,≥ 0.109
18,CCTGCCGC,inactive: -0.283
19,GATTGTGC,inactive: -0.0317
20,ACATCGCG,inactive: 0.149
21,TAAGTTAA,inactive: 0.142
22,CGTCAACG,inactive: -0.078
23,ACCAGCTC,inactive: 0.0255
24,CCTGGATA,inactive: -0.119
25,ATGCCCGG,inactive: -0.145

row,Sequence,PBM E-score
1,AAAATCCT,inactive: -0.0218
2,GTATGCAC,inactive: 0.0836
3,CACTTTTC,inactive: -0.00991
4,GATCGGCC,inactive: -0.222
5,ATCCTTTG,inactive: 0.0198
6,CCGCCGCG,inactive: -0.249
7,ACCTTTTA,inactive: -0.0251
8,AATTTTAC,inactive: 0.142
9,ACCACGGG,inactive: -0.133
10,CCAAAAAG,inactive: -0.00726
11,GTGTTATA,active: 0.334
12,ATAATCGC,inactive: 0.11
13,GGAGGCTA,inactive: -0.223
14,CCCAAGGC,inactive: -0.189
15,GTTGGGTA,inactive: 0.0633
16,ACCGGTTA,inactive: -0.00609
17,CCCGCCGA,inactive: -0.242
18,ACATTAAG,inactive: 0.28
19,AGAAACAA,inactive: 0.203
20,CTTGCAAA,inactive: -0.00122
21,GAATTGTA,inactive: 0.241
22,CATAACCC,inactive: 0.0135
23,AACCACGA,inactive: 0.0837
24,CAGATGCA,inactive: 0.00208
25,CGCGGCTC,inactive: -0.223

row,Sequence,PBM E-score
1,CCGTTCGA,inactive: -0.059
2,CTGCAGAA,inactive: -0.0668
3,GATTATGA,inactive: 0.191
4,CAAGTTCA,inactive: 0.0645
5,GCTTCGGA,inactive: -0.0465
6,CATTTAGG,inactive: -0.0704
7,AGCTGGTG,inactive: -0.0997
8,CCTTAAAG,inactive: -0.0849
9,CCGTGGCG,inactive: -0.206
10,ATACAGAA,inactive: 0.202
11,CATGGCGG,inactive: -0.179
12,CTCGGAAA,inactive: -0.0353
13,CTTGCAGA,inactive: -0.0761
14,GGATGTTA,inactive: 0.204
15,ACGCCGTA,inactive: -0.00892
16,ACAACACT,active: 0.326
17,CCAAATAC,inactive: -0.0594
18,AACATAGC,inactive: 0.283
19,CACATCCA,inactive: 0.0388
20,GCATAGGC,inactive: -0.157
21,CAAGCATA,inactive: 0.132
22,CTATAATA,inactive: 0.0655
23,AGGGGTAT,inactive: -0.128
24,GTCGCGGA,inactive: -0.145
25,ACGCATGC,inactive: 0.0345

row,Sequence,PBM E-score
1,CCAGCGGA,inactive: -0.197
2,ACTAAATA,inactive: 0.171
3,CGATAGCG,inactive: -0.0852
4,CAACGTAC,inactive: 0.173
5,AAGGCTTG,inactive: -0.0426
6,CCCTCTTA,inactive: -0.123
7,AACACCGT,inactive: 0.172
8,GACCAGCA,inactive: -0.0341
9,ACAGCCCT,inactive: -0.0872
10,GTTATCTA,inactive: 0.0812
11,CGACATCG,≥ 0.261
12,CTCTCACC,inactive: -0.114
13,ACGGATAT,inactive: 0.107
14,CCAGGTCC,inactive: -0.266
15,TATTGACA,active: 0.322
16,AGGGTTCG,inactive: -0.116
17,TCCTTGAA,inactive: -0.0418
18,GATATTCA,inactive: 0.022
19,AGCGCGAA,inactive: -0.0548
20,CTGCGGAA,inactive: -0.0915
21,GCCCCCCC,inactive: -0.362
22,AATTAGCT,inactive: 0.0666
23,ACACACTA,inactive: 0.175
